These results are taken from the BET-seq Pho4 binding data (Le et al. 2018).

This is one part of the list. The energies were worked out here from pooled read counts, against the library average; single values are noisy.

The target of the assay is T1, Pho4 (S. cerevisiae) (UniProt P07270).
T1 sequence: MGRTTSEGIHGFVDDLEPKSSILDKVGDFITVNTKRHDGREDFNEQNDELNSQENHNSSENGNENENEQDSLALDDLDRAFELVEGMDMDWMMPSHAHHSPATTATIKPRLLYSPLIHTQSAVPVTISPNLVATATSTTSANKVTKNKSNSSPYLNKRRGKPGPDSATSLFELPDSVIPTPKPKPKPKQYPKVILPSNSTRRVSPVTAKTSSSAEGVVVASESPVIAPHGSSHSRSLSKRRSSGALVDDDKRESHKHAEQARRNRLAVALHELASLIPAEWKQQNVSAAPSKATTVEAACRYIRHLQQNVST
Briefly: relative binding free energy (BET-seq); higher = weaker binding. To be noted: reference: library average.
As for GTTTACACGTGTAGGA, the “relative binding free energy” value was 0.15 kcal/mol.

Turning to TTGATCACGTGTGAGA, the “relative binding free energy” value was found to be 0.2 kcal/mol.

As for TATTACACGTGAAGAT, the “relative binding free energy” value amounted to 0.26 kcal/mol.

For TCGTACACGTGGAGGT, the “relative binding free energy” value came out at 0.03 kcal/mol.

In the case of TATATCACGTGTGCTG, the “relative binding free energy” value is 0 kcal/mol.

Turning to TGGATCACGTGCATTG, the “relative binding free energy” value was 0.2 kcal/mol.

As for GTCATCACGTGTATTG, the “relative binding free energy” value worked out at 0.21 kcal/mol.

TTAGGCACGTGTTGTG: the “relative binding free energy” value was -0.04 kcal/mol.

In the case of TTTTGCACGTGCTTTC, the “relative binding free energy” value was -0.01 kcal/mol.

For ATGCTCACGTGGGATT, the “relative binding free energy” value turned out to be 0.08 kcal/mol.

GTTGTCACGTGTGGCC: the “relative binding free energy” value came to 0.05 kcal/mol.

For the sequence GTGATCACGTGGCATG, the “relative binding free energy” value was -0.1 kcal/mol.

In the case of CTTGGCACGTGGGACT, the “relative binding free energy” value was -0.15 kcal/mol.

Turning to GGCGTCACGTGGTGGC, the “relative binding free energy” value was 0.08 kcal/mol.

Regarding TGTTTCACGTGAATAA, the “relative binding free energy” value was 0.42 kcal/mol.

For the sequence TCGCGCACGTGCGGGG, the “relative binding free energy” value is -0.1 kcal/mol.

For the sequence AAGTTCACGTGGTTAG, the “relative binding free energy” value was determined as 0.23 kcal/mol.

As to CGTGTCACGTGGGACA, the “relative binding free energy” value is 0.11 kcal/mol.

As to GGAGGCACGTGCAGTG, the “relative binding free energy” value was -0.16 kcal/mol.

Turning to TATTTCACGTGACGTA, the “relative binding free energy” value came to 0.33 kcal/mol.

In the case of ACTTACACGTGGAGGG, the “relative binding free energy” value amounted to 0.06 kcal/mol.

With GGGGCCACGTGTGCTG, the “relative binding free energy” value is 0.01 kcal/mol.

Regarding CGGGACACGTGTTGGA, the “relative binding free energy” value amounted to 0.17 kcal/mol.

Take TATCTCACGTGGGTGA: the “relative binding free energy” value amounted to 0.12 kcal/mol.

Turning to ATCGTCACGTGGTGGG, the “relative binding free energy” value came out at 0.04 kcal/mol.

With GTAGGCACGTGGTACA, the “relative binding free energy” value was -0.14 kcal/mol.

Take TTAGTCACGTGTTGAT: the “relative binding free energy” value came out at 0.03 kcal/mol.

For the sequence TTTGACACGTGGCATA, the “relative binding free energy” value is -0.18 kcal/mol.

AAGTGCACGTGGATGA: the “relative binding free energy” value is -0.07 kcal/mol.

For GTAGTCACGTGATTGC, the “relative binding free energy” value was determined as 0.29 kcal/mol.

Turning to TGGGTCACGTGGAGCG, the “relative binding free energy” value was 0.06 kcal/mol.

Turning to TCGGGCACGTGTTGGG, the “relative binding free energy” value was found to be 0.03 kcal/mol.

GTAGGCACGTGTTCTG: the “relative binding free energy” value was determined as 0.01 kcal/mol.

With CATTACACGTGTTGTG, the “relative binding free energy” value was found to be 0.02 kcal/mol.

On to TAAAGCACGTGTAGTT, for which the “relative binding free energy” value amounted to 0.08 kcal/mol.

AAGTTCACGTGTGGTC: the “relative binding free energy” value is 0.43 kcal/mol.

For the sequence AAATTCACGTGTGGTG, the “relative binding free energy” value stood at 0.37 kcal/mol.

For TGTGTCACGTGTAATC, the “relative binding free energy” value is 0.23 kcal/mol.

Take TTTGGCACGTGTCAGG: the “relative binding free energy” value was -0.13 kcal/mol.

Regarding GTCTGCACGTGGGGCG, the “relative binding free energy” value was -0.11 kcal/mol.

Consider GTTTTCACGTGTGCCA, for which the “relative binding free energy” value came out at 0.33 kcal/mol.

As to TCTTTCACGTGAGGCT, the “relative binding free energy” value is 0.3 kcal/mol.

Consider GTTTGCACGTGGTAAG, for which the “relative binding free energy” value came to 0.05 kcal/mol.

Regarding GTTTTCACGTGTTTAG, the “relative binding free energy” value was found to be 0.3 kcal/mol.

With TATTTCACGTGGATCT, the “relative binding free energy” value was 0.26 kcal/mol.

With TGCTTCACGTGATTTG, the “relative binding free energy” value turned out to be 0.39 kcal/mol.

Turning to TGGGACACGTGACTTG, the “relative binding free energy” value was determined as 0.35 kcal/mol.

On to GGTGTCACGTGGCGAG, for which the “relative binding free energy” value was determined as 0.08 kcal/mol.

With GTCCTCACGTGGTAGG, the “relative binding free energy” value turned out to be 0.21 kcal/mol.

In the case of TTTTGCACGTGACTGT, the “relative binding free energy” value amounted to 0.16 kcal/mol.

Turning to ATGCTCACGTGCGGGT, the “relative binding free energy” value came to 0.02 kcal/mol.

In the case of TTTGACACGTGTGGAT, the “relative binding free energy” value was found to be 0.03 kcal/mol.

With GGTTTCACGTGGGACA, the “relative binding free energy” value was 0.3 kcal/mol.

As to AGTAGCACGTGGGAGC, the “relative binding free energy” value was -0.14 kcal/mol.

On to TTTTCCACGTGGTGAC, for which the “relative binding free energy” value came to 0.29 kcal/mol.

As for AATGGCACGTGGTGTT, the “relative binding free energy” value was -0.13 kcal/mol.

For TATTACACGTGGCTGG, the “relative binding free energy” value turned out to be 0.07 kcal/mol.

In the case of ATACTCACGTGTTTGT, the “relative binding free energy” value was found to be 0.14 kcal/mol.

In the case of GGCACCACGTGTGGGT, the “relative binding free energy” value stood at 0 kcal/mol.

Take TGTGGCACGTGGTTAG: the “relative binding free energy” value was -0.07 kcal/mol.

Consider TGTGTCACGTGAAGAG, for which the “relative binding free energy” value worked out at 0.04 kcal/mol.

In the case of CATTGCACGTGTGGTG, the “relative binding free energy” value came to 0.2 kcal/mol.

Consider TCTGGCACGTGGTCTG, for which the “relative binding free energy” value is -0.16 kcal/mol.
